# In all, about 340,000 compounds went through this assay and about 6,900 (2%) were called active. Cut-off read from the data, not from the text of the source: active = inhibition above about 30%; inactive = below that, where a call was filed. Only a part is listed here, and it is no random draw. Where no call is shown, the source filed none.
# Target: D(2) dopamine receptor (Homo sapiens) (UniProt P14416)
# Assay: HTS Assay for Allosteric Antagonists of the Human D2 Dopamine Receptor: Primary Screen for Antagonists; note: 0% is about no effect
# Settings: HEK293 TREx D2 cells, calcium flux, dopamine EC80; at 10 µM; stronger effect = higher value
# In short: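 Tetracycline-induced HEK293 T-REx cells expressing D2 force-coupled to calcium signalling were dye-loaded, exposed to compound for 180 s, then challenged with an EC80 of dopamine; calcium flux was followed kinetically for a further 180 s.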
# UniProt P14416, sequence (P14416 whole entry, looked up): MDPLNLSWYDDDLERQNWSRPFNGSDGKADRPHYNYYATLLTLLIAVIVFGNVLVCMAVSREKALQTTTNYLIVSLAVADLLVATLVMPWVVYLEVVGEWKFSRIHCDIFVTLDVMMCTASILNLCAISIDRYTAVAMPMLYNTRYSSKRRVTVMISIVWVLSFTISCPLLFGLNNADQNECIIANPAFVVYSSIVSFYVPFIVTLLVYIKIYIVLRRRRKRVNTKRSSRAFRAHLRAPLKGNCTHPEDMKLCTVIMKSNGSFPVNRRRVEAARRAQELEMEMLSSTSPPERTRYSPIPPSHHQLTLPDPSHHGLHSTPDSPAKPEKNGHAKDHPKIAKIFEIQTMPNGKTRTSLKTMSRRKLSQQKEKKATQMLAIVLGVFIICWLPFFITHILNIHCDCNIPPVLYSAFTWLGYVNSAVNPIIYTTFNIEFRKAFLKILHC
row,SMILES,inhibition
1,COCCCNC(=O)c1cc(-c2cccnc2)nc2ccccc12,-12.9%
2,COc1ccc(OC)c(NC(=O)c2csnn2)c1,8.41%
3,CC1=C(C(=O)Nc2ccc(C)cc2C)C(c2sccc2C)n2ncnc2N1 (stereo not drawn),16.4%
4,COc1ccc(-n2c(SCC(=O)N3CCC(C)CC3)nc3c([nH]c4ccccc43)c2=O)cc1,9.9%
5,CCCN(CCC)C(=O)Cn1c(=O)n(Cc2ccc(C(=O)NCCc3ccc(OC)c(OC)c3)cc2)c(=O)c2ccccc21,12.1%
6,COCCNC(=O)c1ccc(Cn2c(SCC(=O)NC(C)C)nc3ccccc3c2=O)cc1,5.8%
7,CCCN(C(=O)c1cc2c(Cl)nc3ccccc3c2s1)c1cccc(C)c1,10.1%
8,CCOc1cc(CNc2ccc(O)cc2)cc(Br)c1OCc1ccccc1,-12.1%
9,Cc1ccc(OCCn2c(-c3ccc(Cl)cc3)nc3ccccc3c2=O)c(C)c1,17.9%
10,O=C(CNC(=O)c1cccc(-n2cnnn2)c1)Nc1ccc(F)c(F)c1,active: 37.8%
11,Cc1ccccc1CNC(=O)c1ccc(-n2c(C)cc3c2CCCC3)cc1,-2.17%
12,Cc1ccc(C)c(Cn2nc3c4ccccc4n(Cc4ccccc4)cc-3c2=O)c1,active: 30.4%
13,COc1ccccc1CNC(=O)C1CCN(Cc2nc(-c3ccc(OC)c(OC)c3)oc2C)CC1,7.51%
14,COc1cccc(-c2nnc3n(Cc4ccc(F)cc4)c(=O)c4ccccc4n23)c1,15.1%
15,COc1ccc(CCNC(=O)NCc2noc3ccccc23)c(OC)c1,5.98%
16,CC1=C(C(=O)Nc2ccc(C)cc2C)C(c2ccccc2C)n2ncnc2N1 (stereo not drawn),-9.39%
17,CN(C)c1ccc(C(CNS(=O)(=O)c2ccc(Cl)cc2)N2CCCC2)cc1 (stereo not drawn),-23.5%
18,Cc1ccc(-n2cccn2)c(CN2CCCC(C(=O)c3sccc3C)C2)c1 (stereo not drawn),active: 72.6%
19,COc1cc(C(=O)NCC(c2cccnc2)N2CCN(c3ccc(F)cc3)CC2)cc(OC)c1OC (stereo not drawn),7.5%
20,Cc1cccc(-c2nc3c(C#N)c[nH]n3c2NC2CCCCC2)c1,6.08%
21,Cc1ccc(-c2noc(CN(C3CCCCC3)S(=O)(=O)c3ccc(C)cc3)n2)cc1,-10.2%
22,COc1cc(NC(=O)c2noc3c2CCc2ccccc2-3)cc(OC)c1OC,11.1%
23,Cc1nn(-c2ccc3nncn3n2)c(C)c1CCC(=O)Nc1ccc(OC(F)(F)F)cc1,0.485%
24,Cc1cc(C)c(/C=C(\C#N)C(N)=S)c(C)c1,active: 84%
25,COc1ccc(Br)cc1CNC(=O)CCCn1c(=O)c2cccn2c2ccccc21,20.9%

row,SMILES,inhibition
1,CCOCC(=O)Nc1nnc(COC)s1,active: 31.1%
2,O=C(Nc1ccc(Cl)cc1)C1CCN(c2nc3ccccc3n3cccc23)CC1,-0.526%
3,CC(C)(C)OC(=O)N1CCC(c2c(C(=O)NCc3ccc4c(c3)OCO4)cnn2-c2ccc(F)cc2F)CC1,-0.0982%
4,CCC(Oc1ccccc1F)C(=O)Nc1c(C(=O)c2ccccc2)oc2ccccc12 (stereo not drawn),-11%
5,CCCCN(C)CCNC(=O)c1cc(-c2cccnc2)nc2ccc(S(=O)(=O)N3CCC(C)CC3)cc12,10.5%
6,O=C(c1ccccc1)N1CCCCC(Cl)C1=O (stereo not drawn),active: 31.1%
7,Cc1ccn2c(c1)nc(=O)c1cc(S(=O)(=O)N3CCC(C)CC3)c(Cl)cc12,8.44%
8,CN(Cc1ccccc1)c1nc(-c2ccc(F)cc2)cc(C(F)(F)F)n1,13.8%
9,O=C(COc1ccccc1F)Nc1ccc(C(=O)OCc2cc(=O)n3nc(C4CC4)sc3n2)cc1,1.25%
10,Cc1ccc(NC(=O)CCSCCc2ccccn2)cc1,-20.1%
11,CCc1ccc(-n2c(C)nnc2SCc2nc(-c3ccc(OC)cc3)no2)cc1,7.85%
12,O=C(Nc1ccc(Cl)cc1Cl)c1cc(S(=O)(=O)N2CCN(c3ccccc3F)CC2)ccc1F,-3.15%
13,COc1ccc(NC(=O)c2c(N)c(C(=O)c3ccc(OC)cc3)n3ccccc23)cc1,-6.7%
14,COc1ccc(N2CCN(C(=O)CSc3nc4ccccc4nc3Cc3ccc(Cl)cc3)CC2)cc1,10.5%
15,Cc1c(C(=O)NCCc2ccc(Cl)cc2)cccc1-n1cnc2cccnc21,0.114%
16,COc1ccc(N2CCN(C(=O)c3cc(-c4ccc(C)c(F)c4)on3)CC2)cc1,-9.81%
17,CCOc1ccc(CC(=O)NCCS(=O)(=O)N2CCN(c3ccc(OC)cc3)CC2)cc1,-17.8%
18,CCn1c2ccccc2c2cc(CN3CCN(Cc4ccc(OC)c(OC)c4)CC3)ccc21,-14.1%
19,CCCn1c(/C=C/c2ccccc2)nc2ccccc21,1.92%
20,Cc1coc2c1c(C)cc1oc(=O)c(CC(=O)NCCc3ccc(Cl)cc3)c(C)c12,4.43%
21,CCn1c(CN2CCCCC2)nc2cc(NC(=O)COc3ccccc3C(C)(C)C)ccc21,-6.38%
22,O=C(NCCc1ccc(Cl)cc1)C(=O)NCC(c1ccco1)S(=O)(=O)c1ccccc1 (stereo not drawn),-16.2%
23,Cc1ccc(NC(=O)C(=O)NCC(c2cccnc2)N2CCN(C)CC2)cc1 (stereo not drawn),12.8%
24,Cc1c(C(=O)NCc2ccccc2)oc2ccc(S(=O)(=O)N3CCC(C)CC3)cc12,-6.15%
25,COc1ccc(CCNC(=O)c2c(O)nc3c(C)cccn3c2=O)cc1OC,2.93%

row,SMILES,inhibition
1,COc1ccc(C)cc1NC(=O)c1ccc2nc(Cc3ccccc3)oc2c1,-7.45%
2,CCn1c2c(c(=O)n3ncc(C(=O)Nc4ccc(C(=O)OC)cc4)c13)CN(Cc1ccc(OC)cc1)CC2,7.78%
3,CCOC(=O)c1ccc(CN(Cc2ccc(OC)cc2)S(=O)(=O)c2cccc(C(F)(F)F)c2)cc1,-1.3%
4,O=C(NC1CCN(Cc2ccccc2)CC1)c1cccc(OC(F)F)c1,active: 81%
5,CC1=C(C(=O)Nc2ccccc2C)C(c2cccs2)n2nc(SCc3cc(C)ccc3C)nc2N1 (stereo not drawn),25.8%
6,O=c1c(N2CCc3ccccc3C2)csc2ccc(F)cc12,-19.7%
7,CCOc1ccc(N(CC)C(=O)c2noc3c2COc2ccc(C)cc2-3)cc1,17%
8,COc1ccccc1C(=O)Nc1c(C(=O)c2ccccc2)oc2ccccc12,-8.54%
9,Cc1ccc(CNC(=O)c2c(-c3ccc(Br)cc3)noc2C)o1,5.64%
10,CCOc1ccccc1NC(=O)C1=C(C)Nc2ncnn2C1c1sccc1C (stereo not drawn),14.5%
11,O=C(CCCn1c(=O)c2cccn2c2cccnc21)Nc1ccccc1C(F)(F)F,3.32%
12,Clc1ccc(/C=C\c2nccc3c2[nH]c2ccccc23)cc1,active: 66.4%
13,CN1CCCN(Cc2ccc(Cl)cc2Cl)CC1,active: 34.6%
14,CCOC(=O)Cn1c(=O)n(CC2CCCO2)c2nc(-c3ccccc3Cl)nc(C(N)=O)c21 (stereo not drawn),-6.3%
15,COc1cccc(NC(=O)CSC2=Nc3ccccc3C3=NC(CC(=O)NCc4cccs4)C(=O)N23)c1 (stereo not drawn),4.94%
16,COc1ccc(CNC(=O)CSCc2cnn(-c3ccccc3)c2-n2cccc2)cc1OC,3.64%
17,Cc1cccc(N2CCN(C(=O)c3cc4c(=O)[nH]c5ccc(C)cc5c4s3)CC2C)c1 (stereo not drawn),10.5%
18,CCCN(CCC)C(=O)c1c[nH]c2ccc(S(=O)(=O)N(C)c3ccc(OCC)cc3)cc2c1=O,19.8%
19,Cc1c(CCC(=O)NCc2ccc(F)cc2)c(=O)oc2cc(O)ccc12,-0.825%
20,COc1ccc(CCNC(=O)c2ccc3c(Cl)c4c(nc3c2)CCCC4)cc1OC,-1.27%
21,Cc1ccc2oc(C(=O)Nc3nc(-c4ccc(F)cc4)ns3)c(C)c2c1,1.85%
22,CCc1ccc(C(=O)c2cn(CC(=O)Nc3ccc4c(c3)OCCO4)c3ccc(CC)cc3c2=O)cc1,12.5%
23,Cc1ccccc1OCC(=O)Nc1ccc(C(=O)OCc2cc(=O)n3c(C)csc3n2)cc1,-9.44%
24,C#CC(C)(CC)NC(=O)Cn1nnc(-c2ccc(OCc3ccccc3Cl)cc2)n1 (stereo not drawn),2.54%
25,Cc1ccc(NC(=O)Cn2c(SCc3cccc(F)c3)nc3ccncc32)c(C)c1,-9.48%

row,SMILES,inhibition
1,CC(C)(C)c1ccc(C(=O)Nc2nc3nc(-c4ccccc4)cc(=O)n3[nH]2)cc1,-0.665%
2,COc1ccc(Br)cc1CNC(=O)CN1C(=O)CCCc2ccccc21,-0.965%
3,COc1ccc(C(=O)NCC(c2cccnc2)N2CCN(c3ccccc3OC)CC2)cc1 (stereo not drawn),9.22%
4,COc1ccc(C(C(=O)Nc2ccc(C(C)C)cc2)N(C)C(=O)Cc2cccs2)cc1 (stereo not drawn),3.32%
5,COc1ccc(S(=O)(=O)NC(C)C)cc1-n1cnnn1,-4.39%
6,Cc1ccccc1Nc1nnc(-c2ccc(C)c(S(=O)(=O)N3CCN(C)CC3)c2)c2ccccc12,10.2%
7,O=C(Cc1csc2ccccc12)NCc1ccc(F)cc1,2.43%
8,O=C(Nc1ccc(OC(F)(F)F)cc1)C1CCCN(S(=O)(=O)c2ccc(Br)s2)C1 (stereo not drawn),-3.68%
9,Cc1nc2c(c(SCC(=O)Nc3ccccc3C(F)(F)F)n1)CCC2,-14.2%
10,Cc1cc(OC(C)C(=O)N2CCN(CCc3ccccn3)CC2)ccc1Cl (stereo not drawn),-10%
11,Cc1c(F)cccc1NS(=O)(=O)c1cccs1,8.5%
12,CC(C)N(Cc1ccccc1)C(=O)c1cc2ccc3cccnc3c2[nH]1,-10.5%
13,CCOC(=O)C1CCN(C(=O)c2nn(-c3ccc(C)cc3)c(=O)c3c2c2ccccc2n3C)CC1,2.12%
14,CCC(CC)C(=O)Nc1ccc(OCc2cc(=O)n3ccc(C)cc3n2)cc1,-14.7%
15,CCOc1ccccc1N1CC(c2nc3ccccc3n2CCCOc2ccccc2)CC1=O (stereo not drawn),-0.173%
16,CC(C)(C)c1ccc(C(=O)CSc2n[nH]c(=O)[nH]c2=O)cc1,active: 30.7%
17,CCCCNC(=O)c1cnc2sc(N3CCCCC3)nn2c1=O,3.62%
18,COc1ccc(Nc2ncc(C(=O)N3CCN(c4ccc(OC)cc4)CC3)c3ccccc23)cc1,9.59%
19,O=C(c1ccc2c(c1)CCN2S(=O)(=O)c1ccc(Cl)cc1)N1CCN(c2ccccc2F)CC1,7.49%
20,CCOC(=O)c1sc2ncn(CC(=O)Nc3cccc(C)c3)c(=O)c2c1C,2.07%
21,CCOC(=O)c1[nH]c2ccccc2c1NC(=O)c1c(F)cccc1F,-3.13%
22,O=C(NCc1ccccc1Cl)c1ccc2c(c1)N(Cc1ccccc1)C(=O)c1ccccc1S2,-28.3%
23,O=C(Nc1cccc(Cl)c1)C1CCN(c2nc3ccccc3nc2C(F)(F)F)CC1,6.68%

# Source: PubChem BioAssay AID485344 (National Center for Advancing Translational Sciences (NCATS), 2010)
